The campaign covered roughly 220,000 compounds. About 16,000 (7.3%) were called active. Inconclusive means that the source gave no clear call. Such entries were picked first, then a sample of the others. Calls come from the whole dose curve; as a rule, active = well fitted inhibition curve with a large enough effect (not every such curve was filed as active); inconclusive = small, poorly fitted or top-dose-only effect, or another doubt; inactive = no such curve, though single readings can be large or run the other way. Potencies of inconclusive entries are left out as doubtful fits.
Biological target: Aldehyde dehydrogenase 1A1 (Homo sapiens) (UniProt P00352)
Chain of UniProt P00352 (P00352 whole entry, looked up): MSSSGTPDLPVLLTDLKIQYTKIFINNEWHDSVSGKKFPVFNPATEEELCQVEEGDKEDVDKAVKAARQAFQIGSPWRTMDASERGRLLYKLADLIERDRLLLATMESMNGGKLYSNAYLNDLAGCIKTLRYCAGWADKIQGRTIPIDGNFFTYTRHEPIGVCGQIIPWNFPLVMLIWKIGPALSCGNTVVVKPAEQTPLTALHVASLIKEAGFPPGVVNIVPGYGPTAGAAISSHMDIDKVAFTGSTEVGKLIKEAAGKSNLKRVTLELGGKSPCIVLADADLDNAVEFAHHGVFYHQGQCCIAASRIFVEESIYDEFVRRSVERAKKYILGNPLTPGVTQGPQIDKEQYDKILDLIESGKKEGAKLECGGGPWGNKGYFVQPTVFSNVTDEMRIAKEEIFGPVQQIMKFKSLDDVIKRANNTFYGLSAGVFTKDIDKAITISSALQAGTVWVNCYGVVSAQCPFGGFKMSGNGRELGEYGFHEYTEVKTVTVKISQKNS
Experiment: qHTS Assay for Inhibitors of Aldehyde Dehydrogenase 1 (ALDH1A1);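 for activity, negative = inhibition: plate controls were no enzyme wells and a reference inhibitor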
Settings: Purified ALDH1A1, NADH fluorescence, propionaldehyde substrate; series mostly up to 75.3 µM
Potency is the fitted concentration of half-maximal effect; tags give direction and shape of the fitted curve.

Row | Compound | Potency | activity, negative = inhibition
1 | Cc1cc(C)nc(N2CCCC(C(=O)NCc3ccc4c(c3)OCO4)C2)n1 (configuration not stated) | inconclusive [inhibitor, single point] | 
2 | CCOC(=O)N1CCC(NC(=O)C2CCN(C(=O)N3CC(C)Oc4ccccc43)CC2)CC1 (configuration not stated) | inconclusive [inhibitor, single point] | 
3 | O=C(NCCN1CCN(Cc2ccccc2Cl)CC1)Nc1ccccc1 | inactive | 
4 | CC(=O)N/N=C/c1cc2c(cc1[N+](=O)[O-])OCO2 | inactive | 
5 | Nc1ccc(C(=O)Nc2ccc3nc(-c4cccnc4)[nH]c3c2)cc1 | inactive | 
6 | O=C(c1ccc(Cl)cc1)c1ccc(OCC(O)CN2CCCCC2)cc1 (configuration not stated) | inactive | 
7 | Cn1cc(C(=O)C(=O)N2CCCc3ccccc32)c2ccccc21 | inconclusive [inhibitor, single point] | 
8 | CCOc1ccccc1/C=N/NC(=O)CSc1n[nH]c(=O)[nH]c1=O | inactive | 
9 | O=C(c1cccs1)N1CCN(CCCc2ccccc2)CC1 | inconclusive [inhibitor, partial curve] | 
10 | O=[N+]([O-])c1ccc(C=Nc2ccc(Cl)cc2Cl)s1 | inconclusive [inhibitor, single point] | 
11 | COC(=O)c1sc(NC(=O)/C=C/c2ccc(C)o2)nc1C | inconclusive [inhibitor, partial curve] | 
12 | O=C(CSc1nnc2scc(-c3ccc(Cl)cc3)n12)NCc1ccco1 | inconclusive [inhibitor, single point] | 
13 | O=C1OC(c2cccs2)=N/C1=C\c1ccc(-c2cccc(Cl)c2)o1 | inconclusive [inhibitor, single point] | 
14 | CN1CC(C(=O)O)Cc2c1ccc1ccccc21 (configuration not stated) | inconclusive [inhibitor, partial curve] | 
15 | O=C(CSc1ccc(Cl)cc1)NCc1ccco1 | inactive | 
16 | CC(=O)NCCNc1ncncc1-c1ccc(N(C)C)cc1 | inconclusive [inhibitor, single point] | 
17 | O=C(Nc1ccc(NC(=O)c2cc3ccccc3o2)cc1)c1ccc2c(c1)OCCO2 | inconclusive [inhibitor, partial curve] | 
18 | Clc1ccc(Cl)c(-c2nn3c(COc4ccccc4)nnc3s2)c1 | active: 3.55 µM | 
19 | Cc1ccccc1-n1ncc2c(SCC(=O)NCc3cccs3)ncnc21 | inconclusive [inhibitor, partial curve] | 
20 | NS(=O)(=O)c1ccc(CCNC(=O)CSc2ccccc2)cc1 | inactive | 
21 | CN(C)Cc1c(O)ccc2c3c(c(=O)oc12)CCCCC3 | inconclusive [inhibitor, full curve] | 
22 | COc1ccccc1C(=O)NCc1n[nH]c(=S)n1Cc1ccccc1 | inconclusive [inhibitor, single point] | 
23 | COc1cc(/C=N/N2C(=O)C3C4c5ccccc5C(c5ccccc54)C3C2=O)ccc1O (configuration not stated) | inconclusive [inhibitor, single point] | 
24 | O=C1C2CSCN2C(=O)CN1CCCN1CCN(C(c2ccccc2)c2ccccc2)CC1 (configuration not stated) | inactive | 

Row | Compound | Potency | activity, negative = inhibition
25 | Cc1ccccc1Nc1nc(N)nc(COC(=O)C2CCCCC2)n1 | inconclusive [inhibitor, single point] | 
26 | CCOc1cc(/C=N/NC(=O)c2cccs2)ccc1OC(=O)N1CCOCC1 | inactive | 
27 | Cc1ccc(C2/C(=C(/O)c3ccc(Br)cc3)C(=O)C(=O)N2Cc2ccco2)o1 (configuration not stated) | inconclusive [inhibitor, partial curve] | 
28 | CN1c2ccsc2/C(=N/NC(=O)c2c(F)cccc2F)CS1(=O)=O | inconclusive [inhibitor, partial curve] | 
29 | COC(=O)CSc1nc(C)cc(N2CCOCC2)n1 | inactive | 
30 | Cc1cc2ccccc2n1CCNC(=O)c1ccc(S(=O)(=O)N2CCOCC2)cc1 | active: 10 µM | 
31 | CCOC(=O)c1nn(-c2ccccc2F)c(-c2ccccc2)c1C(=O)c1ccccc1 | inconclusive [inhibitor, single point] | 
32 | COc1cc(-c2nc3cccc(C)n3c2NCC2CCCO2)ccc1O (configuration not stated) | inconclusive [inhibitor, partial curve] | 
33 | C/C(CCc1oc2ccccc2c1-c1ccc(C)o1)=N/O | inconclusive [inhibitor, single point] | 
34 | O=c1c2cnn(-c3ccccc3)c2nc(-c2cccs2)n1-c1cccc(Cl)c1 | inconclusive [inhibitor, single point] | 
35 | O=C1c2ccccc2C(=O)C12Cc1ccccc1N1CCN(c3ccccc3)CC12 (configuration not stated) | inconclusive [inhibitor, single point] | 
36 | COc1ccc(-c2nc3ccccc3c(=O)n2CCCn2ccnc2)cc1 | active: 14.1 µM | 
37 | N#C[C@H]1[C@H](c2ccccc2)[C@](C#N)(C(=O)c2ccccc2)[C@@H]2C=Cc3ccccc3N21 | inconclusive [inhibitor, single point] | 
38 | Cc1cc(C)nc(SCc2nnc(SCC(=O)N3CCCc4ccccc43)o2)n1 | inconclusive [inhibitor, single point] | 
39 | O=C(O)CCN1C(=O)C2C3CC(C2C1=O)C1C(c2ccccc2)c2sc(=O)[nH]c2SC31 (configuration not stated) | inactive | 
40 | COc1cc2c(Cc3c4c5c(cc(OC)c(OC)c5c5c(OC)c(OC)ccc35)CCN4C)c3c4c(cc(OC)c(OC)c4c2cc1OC)CCN3C | inconclusive [inhibitor, partial curve] | 
41 | COc1ccc(-c2nn(-c3ccccc3)cc2/C=C/C(=O)OCC(=O)Nc2cccc(C#N)c2)cc1 | inconclusive [inhibitor, partial curve] | 
42 | COc1cccc(N2C(=O)CC(Nc3ccc(N4CCOCC4)cc3)C2=O)c1 (configuration not stated) | inactive | 
43 | COc1ccc(-c2nc3cnc(N4CCNCC4)nc3n(-c3ccc(OC)cc3)c2=O)cc1 | inconclusive [inhibitor, single point] | 
44 | CC1=C(C(=O)Nc2ccccc2)C(c2cccc([N+](=O)[O-])c2)Nc2nc3ccccc3n21 (configuration not stated) | inactive | 
45 | COc1cc(C2CC(=O)Oc3cc(C)c(Cl)cc32)cc(OC)c1OC (configuration not stated) | inactive | 
46 | CC(=O)OCc1cc(-c2nc3ccccc3[nH]c2=O)nn1-c1ccc(Cl)cc1 | inconclusive [inhibitor, partial curve] | 
47 | CCN(CC)S(=O)(=O)c1ccc(Cl)c(NC(C)=O)c1 | inconclusive [inhibitor, partial curve] | 
48 | O=C1c2ccccc2C(=O)N1CCCCN(C(=O)c1cc([N+](=O)[O-])ccc1Cl)c1ccc(Cl)cc1 | active: 5.01 µM | 

Row | Compound | Potency | activity, negative = inhibition
49 | COc1ccc(NC(=O)c2ccco2)cc1NC(=O)c1ccco1 | inactive | 
50 | CC1(C)CC(=O)C2=C(C1)Nc1ccccc1NC2c1nc2ccccc2[nH]1 (configuration not stated) | inactive | 
51 | CC1CC(C)CN(C(=S)Nc2ccc(SC(F)F)cc2)C1 (configuration not stated) | inconclusive [inhibitor, single point] | 
52 | OCCC1CN(Cc2cccn2-c2ccccn2)CCN1C1CCCCC1 (configuration not stated) | inactive | 
53 | COc1ccc(S(=O)(=O)Nc2ccc(NC(C)=O)cc2)cc1[N+](=O)[O-] | inconclusive [inhibitor, partial curve] | 
54 | NC(=O)COC(=O)C(Cc1ccccc1)NS(=O)(=O)c1ccccc1F (configuration not stated) | inconclusive [inhibitor, single point] | 
55 | O=C(NC12CC3CC(CC(C3)C1)C2)N1CCN(c2ccccn2)CC1 | inconclusive [inhibitor, single point] | 
56 | COc1cnc(SCc2ccc(Cl)cc2Cl)nc1Cl | active: 7.08 µM | 
57 | COc1c(C(=O)NCCSC(C)(C)C)ccc2ccccc12 | inactive | 
58 | CC1CC(=O)N(C)c2cc([N+](=O)[O-])ccc2N1 (configuration not stated) | inconclusive [inhibitor, single point] | 
59 | COc1cccc(C(=O)N(Cc2nc(-c3ccc(C)cc3)no2)C(C)C)c1 | inconclusive [inhibitor, single point] | 
60 | CCCCc1ccc(/C=C2\C(=O)ON=C2c2ccccc2)s1 | inactive | 
61 | COC(=O)CCCC1=CC2=CC(=O)C(C)(OC(=O)c3cnc4ccccc4n3)C(=O)C2=CO1 (configuration not stated) | inactive | 
62 | Cc1ccccc1NS(=O)(=O)c1ccc2[nH]cc(C(=O)NCCCN3CCOCC3)c(=O)c2c1 | inconclusive [inhibitor, single point] | 
63 | Cc1cc[n+](CC(=O)c2cc3ccccc3oc2=O)cc1 | inconclusive [inhibitor, partial curve] | 
64 | COC(=O)[C@@H](NC(=O)O[C@@H]1C(=O)c2cc(OC)ccc2O[C@H]1c1cccc(OC)c1)C(C)C | inactive | 
65 | COc1cc(NC(=O)C/C(C)=N/NC(=O)C(OC)c2ccccc2)c(OC)cc1Cl (configuration not stated) | inactive | 
66 | O=C1c2cccnc2C(O)N1Cc1ccco1 (configuration not stated) | active: 20 µM | 
67 | CC(C)(C)NS(=O)(=O)c1ccc(OCC(=O)NCc2ccco2)cc1 | inconclusive [inhibitor, single point] | 
68 | COC(=O)Nc1nc2ccc(S(=O)c3ccccc3)cc2[nH]1 (configuration not stated) | inconclusive [inhibitor, single point] | 
69 | Nc1cccc(B(O)O)c1 | inconclusive [inhibitor, single point] | 
70 | COC(=O)NC(c1ccc(Cl)cc1)C(C(C)=O)C(=O)OC (configuration not stated) |  | inactive: 13% [at 13.5 µM]
71 | S=C(NCC1CCCO1)Nc1cccc2ccccc12 (configuration not stated) | inactive | 
72 | CCn1c(SCc2ccc(C)cc2)nnc1-c1nn(-c2ccccc2)ccc1=O | inconclusive [inhibitor, single point] | 

Reference: PubChem BioAssay AID1030 (National Center for Advancing Translational Sciences (NCATS), 2008)
